Each structure is given as a SMILES string. Screen size: about 39,000 compounds; about 220 (0.56%) showed activity. This is one part of the list.
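Also: static incubation at 37 °C against the wild-type strain, values averaged over two biological replicates.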

The subject of the experiment is Escherichia coli K-12 BW25113. Nature of the experiment: relative growth (OD600 normalised to plate interquartile mean) (fraction); higher = less growth inhibition, active = 0.2 or less. The note with it: 50 µM; LB; incubation time: overnight (16-24 h).
With `Cc1noc(C)c1NC(=O)Nc1cccc2c1O[C@@H](CN(C)Cc1ccc(-c3ccccc3)cc1)[C@H](C)CN([C@H](C)CO)C2=O`, the relative growth was inactive: 0.988.

With `C[C@H](CO)N1C[C@H](C)[C@@H](CN(C)S(=O)(=O)c2ccc(Cl)cc2)OCc2cn(nn2)CCCC1=O`, the relative growth was inactive: 0.997.

Regarding `C[C@H](CO)N1C[C@H](C)[C@@H](CN(C)C(=O)Nc2ccc(C(F)(F)F)cc2)OCCCC[C@H](C)Oc2ccc(NS(=O)(=O)c3ccc(Cl)cc3)cc2C1=O`, the relative growth is inactive: 1.04.

With `C[C@@H]1CN([C@@H](C)CO)C(=O)Cc2cc(NS(=O)(=O)c3ccccc3)ccc2O[C@H]1CN(C)CC1CC1`, the relative growth is inactive: 1.01.

As for `CCCNC(=O)Nc1ccc2c(c1)C(=O)N(C)C[C@H](OC)[C@@H](C)CN(C(=O)C1CCOCC1)[C@H](C)CO2`, the relative growth is inactive: 1.02.

Consider `COc1cccc(S(=O)(=O)Nc2ccc3c(c2)[C@@H]2C[C@@H](CC(=O)NCCc4ccccc4)O[C@@H](CO)[C@@H]2O3)c1`, for which the relative growth was inactive: 1.01.

With `C[C@H](CO)N1C[C@H](C)[C@@H](CN(C)C(=O)C2CCOCC2)Oc2cc(C3=CCCCC3)ccc2S1(=O)=O`, the relative growth is inactive: 0.993.

Regarding `C[C@@H]1CN([C@H](C)CO)C(=O)Cc2cc(NC(=O)CCCCCC(=O)Nc3ccccc3N)ccc2O[C@H]1CN(C)C(=O)Nc1ccc(C(F)(F)F)cc1`, the relative growth was inactive: 0.997.

Consider `CC(C)C#Cc1cnc2c(c1)C(=O)N([C@H](C)CO)C[C@H](C)[C@@H](CN(C)C(=O)c1ccc3c(c1)OCO3)O2`, for which the relative growth is inactive: 1.

Regarding `C[C@H]1CN([C@@H](C)CO)C(=O)Cc2cc(NC(=O)CCCN(C)C)ccc2O[C@H]1CN(C)S(=O)(=O)c1ccccc1`, the relative growth was inactive: 0.977.

With `Cc1noc(C)c1S(=O)(=O)Nc1ccc2c(c1)C(=O)N([C@H](C)CO)C[C@@H](C)[C@H](CN(C)Cc1ccncc1)O2`, the relative growth was inactive: 1.02.

Consider `CC(C)(Sc1cc(C(C)(C)C)c(O)c(C(C)(C)C)c1)Sc1cc(C(C)(C)C)c(OC(=O)CCC(=O)O)c(C(C)(C)C)c1`, for which the relative growth is inactive: 0.821.

As to `C[C@@H]1CN([C@@H](C)CO)C(=O)c2cc(NS(C)(=O)=O)ccc2O[C@@H](C)CCCCO[C@@H]1CN(C)Cc1ccc(C(F)(F)F)cc1`, the relative growth is inactive: 1.01.

As for `Cc1ccc(S(=O)(=O)Nc2ccc3c(c2)C(=O)N([C@H](C)CO)C[C@H](C)[C@H](CN(C)C(=O)Nc2c(C)noc2C)OCCCC[C@H](C)O3)cc1`, the relative growth was inactive: 1.03.

For the compound `Cc1c(C(=O)Nc2ccc3ccccc3c2)oc2ccccc12`, the relative growth is inactive: 1.01.

With `Cn1c(=O)c2c(nc3n2CC=NN3)n(C)c1=O`, the relative growth was inactive: 0.956.

Regarding `C[C@@H]1CN([C@@H](C)CO)S(=O)(=O)c2ccc(C#Cc3ccccc3F)cc2O[C@@H]1CN(C)CC1CCOCC1`, the relative growth is inactive: 1.04.

Take `COc1ccc(NC(=O)Nc2ccc3c(c2)C(=O)N([C@@H](C)CO)C[C@@H](C)[C@H](CN(C)C(=O)Cc2ccccc2)OCCCC[C@@H](C)O3)cc1`: the relative growth is inactive: 1.01.

For the compound `CC(=O)OCC=C(C)C=CC=C(C)C=CC1=C(C)CCCC1(C)C`, the relative growth is inactive: 1.04.

For the compound `CCN1CCC[C@@H]1CN1CNC(=S)NC1`, the relative growth was inactive: 0.944.

With `COCC#Cc1cnc2c(c1)C(=O)N([C@H](C)CO)C[C@H](C)[C@H](CN(C)S(=O)(=O)c1cccc(OC)c1)O2`, the relative growth was inactive: 1.01.

In the case of `C[C@H](CO)N1C[C@H](C)[C@@H](CN(C)S(=O)(=O)c2cccs2)OCCCC[C@H](C)Oc2ccc(NC(=O)Nc3ccccc3)cc2C1=O`, the relative growth is inactive: 1.01.

Regarding `NNC(=O)c1ccccn1`, the relative growth was inactive: 1.02.

With `C[C@H]1CCCCO[C@H](CN(C)Cc2ccccc2)[C@@H](C)CN([C@@H](C)CO)C(=O)c2cc(NC(=O)Nc3cccc4ccccc34)ccc2O1`, the relative growth is inactive: 0.996.

Consider `Cc1noc(C)c1S(=O)(=O)N(C)C[C@H]1OCCCC[C@@H](C)Oc2ccc(NC(=O)Nc3cccc4ccccc34)cc2C(=O)N([C@H](C)CO)C[C@@H]1C`, for which the relative growth was inactive: 1.01.

In the case of `Cc1noc(C)c1NC(=O)Nc1ccc2c(c1)C(=O)N([C@@H](C)CO)C[C@@H](C)[C@@H](CN(C)Cc1ccc3c(c1)OCO3)OCCCC[C@@H](C)O2`, the relative growth is inactive: 0.966.

Regarding `COC(=O)c1cn(CC(N)=O)c2ccccc12`, the relative growth is inactive: 0.972.

`C[C@@H]1CN([C@@H](C)CO)C(=O)c2cc(NS(=O)(=O)c3ccccc3)ccc2O[C@H]1CN(C)Cc1ccncc1`: the relative growth was inactive: 1.02.

On to `C[C@@H]1CCCCO[C@@H](CN(C)CC2CCCCC2)[C@H](C)CN([C@@H](C)CO)C(=O)c2cc(NC(=O)CCCCCC(=O)Nc3ccccc3N)ccc2O1`, for which the relative growth was inactive: 0.957.

Take `Nc1ncnc(N[C@H]2CCS(=O)(=O)C2)c1[N+](=O)[O-]`: the relative growth is inactive: 1.01.

In the case of `COc1ccc(S(=O)(=O)N(C)C[C@@H]2Oc3ccc(NS(=O)(=O)c4c(C)noc4C)cc3CC(=O)N([C@@H](C)CO)C[C@@H]2C)cc1`, the relative growth is inactive: 0.968.

Turning to `C[C@@H]1CN([C@@H](C)CO)C(=O)c2cc(NC(=O)Nc3cccc4ccccc34)ccc2O[C@@H](C)CCCCO[C@H]1CN(C)C(=O)c1ccccc1`, the relative growth was inactive: 1.01.

Consider `COc1ccc(S(=O)(=O)N(C)C[C@H]2Oc3c(NC(=O)c4cc(C)nn4C)cccc3C(=O)N([C@H](C)CO)C[C@@H]2C)cc1`, for which the relative growth was inactive: 0.996.

For the compound `O=C(C[C@H]1CC[C@H](NC(=O)CN2CCOCC2)[C@@H](CO)O1)NCc1cccc(F)c1`, the relative growth was inactive: 0.977.

`CS(=O)(=O)c1nnnn1-c1ccc2c(c1)OCO2`: the relative growth was inactive: 0.995.

Take `O=C(C[C@@H]1C[C@H]2c3cc(NS(=O)(=O)c4ccc(F)cc4)ccc3O[C@H]2[C@@H](CO)O1)NCCN1CCCCC1`: the relative growth was inactive: 0.987.

`C#Cc1cnc(OC)cn1`: the relative growth was inactive: 0.992.

Take `Cc1noc(C)c1S(=O)(=O)Nc1ccc2c(c1)C(=O)N([C@@H](C)CO)C[C@@H](C)[C@H](CN(C)Cc1ccc(Cl)c(Cl)c1)OCCCC[C@@H](C)O2`: the relative growth is inactive: 0.987.

As for `COc1ccc2c3c(n(c2c1)C)[C@H](CO)N(C[C@]13CN(C1)C(=O)Cc1ccccc1)C(=O)c1ccccn1`, the relative growth is inactive: 1.01.

On to `O=C(C[C@H]1CC[C@H]2[C@@H](COC[C@@H](O)CN2S(=O)(=O)c2ccccc2F)O1)NCc1ccccc1Cl`, for which the relative growth is inactive: 1.

In the case of `C/C=C/c1ccc2c(c1)O[C@@H](CN(C)C(=O)c1ccc3c(c1)OCO3)[C@H](C)CN([C@@H](C)CO)S2(=O)=O`, the relative growth was inactive: 0.996.

For `Cc1ccc(S(=O)(=O)N2C[C@H](O)COC[C@@H]3O[C@@H](CC(=O)N4CCc5ccccc5C4)CC[C@H]32)cc1`, the relative growth was inactive: 1.

In the case of `C[C@@H]1CN([C@@H](C)CO)C(=O)c2cccc(NC(=O)C3CCOCC3)c2O[C@H]1CN(C)Cc1ccncc1`, the relative growth was inactive: 0.997.

For `C[C@H](CO)N1C[C@H](C)[C@H](CN(C)S(=O)(=O)c2ccc(Cl)cc2)Oc2ccc(NC(=O)CCN3CCOCC3)cc2CC1=O`, the relative growth was inactive: 0.947.

`COC(=O)C[C@H]1CC[C@H](N)[C@@H](CO)O1`: the relative growth was inactive: 0.982.

For the compound `COCC(=O)Nc1ccc2c(c1)C(=O)N(C)C[C@@H](OC)[C@@H](C)CN(Cc1ccccc1F)[C@H](C)CO2`, the relative growth was inactive: 0.994.

As for `C[C@H]1CN([C@@H](C)CO)C(=O)Cc2cc(NC(=O)CCN3CCOCC3)ccc2O[C@@H]1CN(C)S(=O)(=O)c1ccc(Cl)cc1`, the relative growth is inactive: 1.

Consider `C[C@H]1CN([C@@H](C)CO)C(=O)c2cc(NC(=O)CCN3CCOCC3)ccc2O[C@@H]1CN(C)CC1CCCCC1`, for which the relative growth was inactive: 0.993.

Turning to `Cc1noc(C)c1NC(=O)N(C)C[C@@H]1Oc2c(NS(C)(=O)=O)cccc2C(=O)N([C@@H](C)CO)C[C@@H]1C`, the relative growth is inactive: 0.991.

As to `C[C@H](CO)N1C[C@H](C)[C@@H](CN(C)Cc2ccc(C(=O)O)cc2)Oc2ccc(NC(=O)Nc3cccc4ccccc34)cc2CC1=O`, the relative growth was inactive: 0.989.

Take `C[C@@H]1CCCCO[C@H](CN(C)C(=O)Cc2ccccc2)[C@H](C)CN([C@H](C)CO)C(=O)c2cc(NS(=O)(=O)c3ccc(F)cc3)ccc2O1`: the relative growth was inactive: 1.04.

On to `Cc1noc(C)c1NC(=O)N(C)C[C@@H]1Oc2ccc(NS(=O)(=O)c3cn(C)cn3)cc2CC(=O)N([C@@H](C)CO)C[C@H]1C`, for which the relative growth was inactive: 1.01.

For `C[C@@H]1CN([C@@H](C)CO)C(=O)c2cccc(NC(=O)Nc3ccc(C(F)(F)F)cc3)c2O[C@@H]1CN(C)C(=O)Nc1ccc(C(F)(F)F)cc1`, the relative growth was inactive: 0.989.

On to `C[C@@H]1CN([C@@H](C)CO)C(=O)CCCn2nncc2CO[C@H]1CN(C)C(=O)Nc1ccc(N2CCN(C)CC2)cc1`, for which the relative growth is inactive: 0.998.

As for `C[C@@H]1CN([C@H](C)CO)C(=O)c2cc(NS(C)(=O)=O)ccc2O[C@@H](C)CCCCO[C@H]1CN(C)Cc1ccc(C(F)(F)F)cc1`, the relative growth is inactive: 0.969.

Regarding `COC1C=COC2(C)Oc3c(C)c(O)c4c(O)c(c(C=NN5CCN(C6CCCC6)CC5)c(O)c4c3C2=O)NC(=O)C(C)=CC=CC(C)C(O)C(C)C(O)C(C)C(OC(C)=O)C1C` (stereo not given), the relative growth was active: 0.0719.

On to `COc1ccc(S(=O)(=O)Nc2ccc3c(c2)C(=O)N([C@H](C)CO)C[C@H](C)[C@H](CN(C)C(=O)Nc2c(C)noc2C)O3)cc1`, for which the relative growth was inactive: 1.

For `Cc1ccc(-c2ccc3c(c2)O[C@H](CN(C)C(=O)CN(C)C)[C@@H](C)CN([C@@H](C)CO)S3(=O)=O)cc1`, the relative growth is inactive: 0.988.

As to `COCC(=O)N[C@H]1C=C[C@@H](CC(=O)N2CCCCC2)O[C@H]1CO`, the relative growth was inactive: 0.988.

`C=CC[C@@H](CC(=O)NCCO)C(=O)N[C@@H](COC(=O)[C@@H](CC=C)CC(=O)OC(C)(C)C)Cc1ccccc1`: the relative growth is inactive: 1.01.
